According to the supplement of paper PMC3334620:
The full ranking holds about 33,000 sequences; the median of “E-score (-0.5 to 0.5)” is about -0.016, and the highest 2% start at about 0.32. The list shows a part of the results.

Molecular target: T1, Stp1 (UniProt B3LFK1)
T1 sequence: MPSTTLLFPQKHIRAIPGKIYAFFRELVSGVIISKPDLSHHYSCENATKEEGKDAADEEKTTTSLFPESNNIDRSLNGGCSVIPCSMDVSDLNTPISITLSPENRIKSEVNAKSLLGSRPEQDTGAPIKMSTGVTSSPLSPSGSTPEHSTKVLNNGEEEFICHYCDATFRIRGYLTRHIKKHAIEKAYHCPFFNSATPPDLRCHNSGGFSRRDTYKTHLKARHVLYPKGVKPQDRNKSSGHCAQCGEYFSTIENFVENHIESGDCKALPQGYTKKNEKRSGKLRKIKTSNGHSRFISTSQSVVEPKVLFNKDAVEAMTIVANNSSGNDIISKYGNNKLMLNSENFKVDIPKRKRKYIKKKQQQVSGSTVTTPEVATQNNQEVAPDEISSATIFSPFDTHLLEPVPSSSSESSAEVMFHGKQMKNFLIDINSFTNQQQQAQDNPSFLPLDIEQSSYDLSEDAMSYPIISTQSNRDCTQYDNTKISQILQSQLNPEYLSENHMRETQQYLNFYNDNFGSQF
Assay: PBM E-score (8-mer binding enrichment) (E-score (-0.5 to 0.5)); higher = stronger / more preferred TF binding; most listed sequences are background and not binding sites
Settings: protein concentration: 200 nM; construct: GST-full length
Procedure, shortened: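 Bound GST-tagged yeast transcription factors, applied at about 100-200 nM to double-stranded universal all-10-mer Agilent arrays, were detected with fluorescent anti-GST. Scans were normalised with masliner. A modified Wilcoxon-Mann-Whitney statistic, the E-score, was assigned to each ungapped eight-base word pooled with its reverse complement by the Universal PBM Analysis Suite.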

Sequence | PBM E-score
AAATGATT | 0.126
AGATATCC | 0.0286
CAATAAAG | 0.217
ACGCGCAT | -0.012
CCCCTGGA | -0.375
GCGAATCA | 0.0939
ATGAGTGG | -0.0445
CCAAGGCC | 0.171
GCTTAGAC | -0.11
TAAGAGCA | -0.0159
ATGCTGTG | 0.0433
ATAACGTA | 0.121
ATGTTTGA | -0.0902
TCCTGGCA | -0.0312
CATGTATA | -0.0651
CGCCGGGA | -0.251
GCGCTCCC | -0.106
CACGAACA | 0.121
ATACTCGG | -0.0581
AAGAATAC | 0.133
AGTTGAAC | -0.106
AGTGTTTC | -0.00032
TGCTCACA | 0.0472
AGATAGCT | -0.175
CGGAGTAG | -0.18

Sequence | PBM E-score
CCGAGGAG | -0.0986
ACGAGGCG | 0.457
GACAATTA | 0.165
CTGGCTAA | -0.0944
CAATGGTA | -0.0291
ACAATCAC | -0.0628
AGGGAGCC | -0.183
GAAGAATA | -0.0673
GCCACACA | 0.132
CACGCACA | 0.0561
AGTGTAAC | 0.0739
CGGGGACG | -0.219
ACGAACAA | 0.264
AATTAGGG | -0.211
ACTGTGTC | 0.0125
AAGGCCCC | -0.021
ACTTACGC | -0.0615
CGCCCCCG | -0.213
TGGATGAA | -0.0342
GACTCTGA | -0.139
GTCGGGGA | -0.152
ATTCGAAC | 0.0643
GCGCACGC | -0.0354
GCAGGCGC | 0.148
CCCGCTGC | -0.0787

Sequence | PBM E-score
CGCGCTGC | 0.122
CTGGAACA | -0.0791
GTCCCGCA | -0.0837
GCGCTGCA | 0.232
CAGATAAG | -0.104
GTCTTATA | 0.0311
ACAGGGCA | 0.244
CACCTGTC | -0.0834
AGCACTCC | -0.138
GGTATTCA | 0.126
ACGCGAAA | 0.0194
CTCGATCA | -0.0874
CTGAACAG | -0.00706
GACTCACA | -0.207
AGTTGATA | 0.105
AGTCACTC | -0.138
CCCCACCA | -0.126
ATGGGATC | -0.108
GCACTGCA | 0.00383
GACGCTAA | -0.124
CTGACGAA | 0.251
AGAGTCGA | -0.295
AAACTTAC | -0.0757
AAAACTGT | 0.0272
CGTTATGA | 0.0701

Sequence | PBM E-score
AGCTAAAC | -0.188
CGTCCTCC | -0.239
ATCTAGTC | 0.0586
GCCGGCTA | 0.0397
CGGTCACG | -0.171
AGCAAACC | -0.0816
ACGGTCCC | -0.136
ATGGGTCC | -0.21
AGCAGCTC | -0.191
AGGGCTAC | -0.209
AGCGGGAG | -0.327
GGGTCACC | -0.36
ATATCCCC | -0.136
CAGATCGC | 0.036
CGCTCATC | 0.0903
GCGGAAGA | -0.0192
GCACGCTA | 0.0804
CTTGGTCA | -0.112
GAAAAGCC | 0.0718
ATCATACA | 0.131
GAACAAGC | -0.117
ATCATTAG | 0.0912
ACCTGGTA | -0.29
ACAGCTAA | -0.0921
ATTAGGTG | -0.02

Sequence | PBM E-score
GGATTTCA | -0.0545
ATTTTAGC | 0.0251
AGGTCAGG | -0.28
ATCTGGAC | -0.214
TGTTTAAA | 0.0295
GCGGCCCC | 0.176
TATGGGCA | 0.078
CGCGTGTC | 0.184
GTCCACTA | -0.19
AGTAAAAG | 0.0502
AAAGAGTG | -0.233
CACTGCGC | 0.124
CGAAAGTC | -0.109
GTCAAGTA | -0.116
AGGAGAGA | -0.136
CAAAAGTG | 0.0114
CGCTGTCC | 0.0724
GAGACTCC | -0.255
GGTGGTAA | -0.0854
ATCATGCC | 0.0455
TGGAAGAA | -0.00986
ACTCTACC | -0.13
AGTCGGTA | -0.248
ATTGCGAA | 0.0475
AACCCAGG | -0.23

Sequence | PBM E-score
GGCATGTA | 0.136
TATGGTAA | 0.0997
GTACAAAC | 0.121
GCGTGGAA | -0.0738
TCCCATCA | -0.201
AAAGCGTC | -0.0677
ACCATGTG | -0.0149
ATAATTAG | 0.207
AAAGTACT | -0.0073
CCCACAGC | -0.0512
AGCCCGGC | -0.0378
GTGAGTCA | -0.151
ATTAGTGA | 0.1
CATAACCA | -0.0918
AGCATTGG | -0.0346
AGCCTCGC | 0.0691
AACGAGTC | -0.0955
CATCCACC | -0.0391
GTAAGAAA | 0.0223
CCAGACCG | -0.132
ACATGATG | -0.0676
AATTACGG | 0.126
ATAGAATC | 0.19
TCTCTGAA | -0.156
AGTATCCC | -0.11

Sequence | PBM E-score
AACATTGT | 0.027
GCTCTACC | -0.266
AAAAAGAA | 0.194
AACTCGGT | -0.107
AATGAAAT | 0.22
AGCTCAAC | -0.0401
AGTGACTG | -0.249
GCTCCACC | -0.229
ACCCCTCG | -0.281
ATCGCCGG | 0.192
ACCGTCGG | -0.194
AACCCATA | -0.0253
GTTTTTAA | 0.123
AAAATCTA | 0.143
CTATGAGA | -0.132
AAACTCTA | -0.0936
CAGGTTAA | -0.207
CAGTTATC | 0.0278
AGTGCTGC | 0.11
GATGCTAC | -0.0867
CCCGTGCC | 0.33
CGATCCCC | -0.141
AGCGGCCA | -0.114
AAATCACA | -0.113
AAAATAGA | 0.0389

Sequence | PBM E-score
ATTCAGTC | 0.0106
ACGAGAGA | -0.114
AGCTACAA | -0.0168
ATGATGGC | -0.118
GACAACAC | 0.0697
ACCAATTA | 0.136
CGAGTCGC | -0.182
AAGCGCAT | -0.17
CCCCCCTC | -0.408
TATAGTAA | 0.109
TAGTACGA | 0.0733
ACTCTCCG | 0.0704
TATTACCA | 0.108
CCAGTAGG | -0.0159
CTCCTAGC | -0.0176
ACGAATAG | -0.134
GATCACGC | 0.158
ACGGAGGC | -0.00751
GGAGTTGA | -0.23
ACACTACA | -0.0358
TCCCGCAA | 0.109
CGTGACGA | 0.0622
GGCGTTCA | 0.158
ACCTAAAA | -0.0112
CAGTACCC | -0.217

Sequence | PBM E-score
ACCCACTG | -0.129
GACCGTTA | -0.136
CGCGTCTC | 0.153
TCAGGACA | -0.102
CATCGCAC | -0.0888
ACTCTTAT | 0.0603
GCGGTAGA | -0.078
CGCATACA | 0.187
TATACAGA | 0.1
CGGCGTTC | 0.391
GCATGAAC | 0.182
GCGGAATA | 0.133
AGCACAAA | 0.206
GAGTTTTA | 0.0717
CACCATGC | -0.0746
GTCCCGGA | -0.0459
CAAGACGG | -0.0357
ACCGAATA | -0.0813
ACCATCGT | 0.0227
